# Experimental data published in a collection of fitness landscapes (doi:10.1038/s41467-024-54723-y).
# The full ranking holds about 18,000 sequences; the median of “TetR repression strength (sort-seq, GFP reporter)” is about 0.23, and the highest 2% start at about 0.68. This is one part of the list.
# Biological target: TetR (class B, Tn10) (UniProt P04483)
# Assay: TetR repression strength (sort-seq, GFP reporter) (relative to tetO2 = 1); higher = stronger repression
# Conditions: E. coli
# Outline: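 Repression strength is the top bin index plus one minus the read-weighted mean bin, relative to the unaltered operator's value. A low-copy library in E. coli SIG10-MAX randomized eight operator positions between a constitutive promoter and sfGFP, with TetR expressed constitutively; cells grew 5 h at 37 °C in LB with 50 µg/mL chloramphenicol and 10^6 were FACS-sorted into 13 bins that were each Illumina-sequenced. Three independent transformations were averaged, keeping only members with ≥30 reads in all replicates and CV ≤0.5.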
# UniProt P04483, sequence (P04483 whole entry): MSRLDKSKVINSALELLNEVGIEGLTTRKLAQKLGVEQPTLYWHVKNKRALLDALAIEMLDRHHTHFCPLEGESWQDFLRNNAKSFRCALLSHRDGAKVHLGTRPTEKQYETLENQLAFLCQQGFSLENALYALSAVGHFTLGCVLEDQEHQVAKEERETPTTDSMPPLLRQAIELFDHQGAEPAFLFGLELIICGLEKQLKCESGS
row,Sequence,TetR repression strength
1,TCCCACCTAGTGGGTGAGA,0.155
2,TCCCCTTCAGTGTAAGAGA,0.233
3,TCCCTTTAAGTGGGTGAGA,0.519
4,TCCCCTGAAGTAAGCGAGA,0.311
5,TCCCTTTTAGTGGGGGAGA,0.0851
6,TCCCATAGAGTACGGGAGA,0.3
7,TCCCTCATAGTTACCGAGA,0.575
8,TCCCAACGAGTACATGAGA,0.312
9,TCCCGGTGAGTTGGCGAGA,0.257
10,TCCCAGAAAGTACTAGAGA,0.311
11,TCCCGTCGAGTCGGCGAGA,0.0942
12,TCCCCCTAAGTAGCGGAGA,0.273
13,TCCCTCCGAGTCTGAGAGA,0.164
14,TCCCAGAGAGTGTGGGAGA,0.144
15,TCCCCCAGAGTAGGCGAGA,0.144
16,TCCCTGCGAGTGTCTGAGA,0.204
17,TCCCATTCAGTCAAGGAGA,0.464
18,TCCCCTGGAGTGTGAGAGA,0.0332
19,TCCCATGGAGTGTGAGAGA,0.294
20,TCCCTCTCAGTTGTTGAGA,0.357
21,TCCCGCCGAGTCACAGAGA,0.0411
22,TCCCGTAAAGTGTCGGAGA,0.0616
23,TCCCACTCAGTCACAGAGA,0.279
24,TCCCGGTGAGTCTGTGAGA,0.438
25,TCCCGGCCAGTTACCGAGA,0.207
26,TCCCAAGCAGTTTTGGAGA,0.0594

row,Sequence,TetR repression strength
1,TCCCGTATAGTGCAAGAGA,0.464
2,TCCCCGTGAGTCTGGGAGA,0.144
3,TCCCTGTCAGTAATCGAGA,0.535
4,TCCCTTGAAGTGGTGGAGA,0.202
5,TCCCTGATAGTTACGGAGA,0.412
6,TCCCGGCTAGTGCGCGAGA,0.241
7,TCCCATGTAGTGTCGGAGA,0.301
8,TCCCGTGCAGTCCTCGAGA,0.171
9,TCCCAACTAGTAAATGAGA,0.567
10,TCCCGGCTAGTCCTGGAGA,0.234
11,TCCCGGTAAGTTGAGGAGA,0.661
12,TCCCCGCGAGTGAGTGAGA,0.269
13,TCCCTGGCAGTGCGTGAGA,0.16
14,TCCCGAGTAGTTACAGAGA,0.136
15,TCCCTAACAGTGACAGAGA,0.559
16,TCCCTACTAGTGTTGGAGA,0.217
17,TCCCCGTAAGTTAGGGAGA,0.166
18,TCCCGTGAAGTCCGCGAGA,0.2
19,TCCCCGACAGTATAGGAGA,0.143
20,TCCCTGTTAGTCCTCGAGA,0.431
21,TCCCGCCGAGTAGTGGAGA,0.27
22,TCCCCCCAAGTAGGTGAGA,0.1
23,TCCCGGGTAGTGTGTGAGA,0.224
24,TCCCAGCGAGTGTTTGAGA,0.257
25,TCCCGATTAGTACACGAGA,0.24
26,TCCCGGTTAGTGCAAGAGA,0.415

row,Sequence,TetR repression strength
1,TCCCGTAGAGTGAATGAGA,0.217
2,TCCCGGCCAGTACCGGAGA,0.222
3,TCCCGCGGAGTGTAGGAGA,0.415
4,TCCCAGGCAGTCGGCGAGA,0.25
5,TCCCTGTTAGTGGCGGAGA,0.2
6,TCCCTGCGAGTCGAGGAGA,0.253
7,TCCCTGTGAGTGGGCGAGA,0.329
8,TCCCGCCTAGTATCGGAGA,0.095
9,TCCCGAGTAGTGGGCGAGA,0.186
10,TCCCTGTAAGTTGACGAGA,0.1
11,TCCCATGTAGTTATGGAGA,0.295
12,TCCCGCGGAGTCCTCGAGA,0.294
13,TCCCACTTAGTCGTAGAGA,0.125
14,TCCCAACTAGTCCTGGAGA,0.278
15,TCCCCACCAGTGCTCGAGA,0.491
16,TCCCGAGCAGTGGAAGAGA,0.252
17,TCCCCCAGAGTATCGGAGA,0.0944
18,TCCCTCTAAGTTGTAGAGA,0.256
19,TCCCATGAAGTCTGAGAGA,0.226
20,TCCCGGGTAGTTGTGGAGA,0.224
21,TCCCACCCAGTGACAGAGA,0.585
22,TCCCCTGTAGTGTGCGAGA,0.297
23,TCCCTTAGAGTCGCAGAGA,0.265
24,TCCCCAGGAGTGAAGGAGA,0.118
25,TCCCGGGTAGTTTTTGAGA,0.143
26,TCCCTGCGAGTTAAAGAGA,0.128

row,Sequence,TetR repression strength
1,TCCCATCTAGTCTTGGAGA,0.128
2,TCCCAGGGAGTGAGTGAGA,0.18
3,TCCCACTGAGTACTTGAGA,0.418
4,TCCCGCCGAGTGGTTGAGA,0.235
5,TCCCTCTGAGTAAAGGAGA,0.118
6,TCCCGTGTAGTGGTAGAGA,0.202
7,TCCCCGTCAGTGGAAGAGA,0.104
8,TCCCTTATAGTGTAGGAGA,0.0398
9,TCCCGCGGAGTACCGGAGA,0.217
10,TCCCTGGCAGTATGGGAGA,0.311
11,TCCCGTACAGTGTGGGAGA,0.226
12,TCCCATTAAGTGAACGAGA,0.253
13,TCCCTGTTAGTCGGGGAGA,0.242
14,TCCCGACCAGTGGGAGAGA,0.201
15,TCCCTGACAGTCCAAGAGA,0.176
16,TCCCGCATAGTGCGTGAGA,0.188
17,TCCCGGCCAGTGCTAGAGA,0.327
18,TCCCAAGAAGTCGACGAGA,0.35
19,TCCCTTGGAGTGGCCGAGA,0.277
20,TCCCATGAAGTAAAGGAGA,0.242
21,TCCCTGTCAGTTGGAGAGA,0.36
22,TCCCTGCTAGTTATTGAGA,0.38
23,TCCCAAGGAGTCGTAGAGA,0.204
24,TCCCGGTAAGTCGTCGAGA,0.302
